The chains are these.
B1: chr4:41699229:41699330:+|3pUTR|ENSG00000064042|msi1|total|mutant (ssRNA)
RNA: GGGAGUUCUACAGUCCGACGAUCGAUUACAUGAAUAUUGCACAUUCCCUUCUGGUUUCACAAACCCAUUUAUACAUAUUUCUCCGUGAGGCUCAUUGUACAUGUAUUGAAGCCCGAAUCGAGUCAAGAAAAAUAAAGCCCCAUCAACAGAGGAUUGAGCAUCA
B2: chr2:152649661:152649762:+|3pUTR|ENSG00000157827|msi1|total|mutant (ssRNA)
RNA: GGGAGUUCUACAGUCCGACGAUCCUACAAACCGACAACGUUGGCAUGUUCUUUUCUGUUUGUCUAUUAAUGGGCCUGCUUCUCCGCAAUAUCCGAAUGUUUUAUAAAAGCAAUUCAUGUUACUUUUCUGGUCUUUUCAUGGCACAACAGAGGAUUGAGCAUCA
B3: chr7:88202242:88202358:+|3pUTR|ENSG00000008277|unk|total|mutant (ssRNA)
RNA: GGGAGUUCUACAGUCCGACGAUCUCAGGACCGAUAAGCAUGUACUCCUUUUUUAACUUGCUGGAAGACUUGCCCCUCCAAACCCGCACCCCCAAAAGACAACUUCUUUCAGAAACGGGGUGUUUUACCUAAACACCGCCGCUUCAACAGAGGAUUGAGCAUCA
B4: chr16:14672609:14672749:-|CDS|ENSG00000069764|control|control|control (ssRNA)
RNA: GGGAGUUCUACAGUCCGACGAUCGGCAGAGAACAAAUGCCAAGAACUGUUGUGCAAGUGUGACCAGGAGAUUGCUAACUGCUUAGCCCAAACUGAGUACAACUUAAAGUACCUCUUCUACCCCCAGUUCCUAUGUGAGCCGGACAACAGAGGAUUGAGCAUCA
B5: chr12:54238554:54238587:-|3pUTR|ENSG00000094916|msi1_unk|total|mutant (ssRNA)
RNA: GGGAGUUCUACAGUCCGACGAUCGGGAGCACCCAUUUUAAACCUGGAGAGAACCAUGAUGUUUUCUUCUUCAAAUAACAAUCCCGUUUUUUUUCCCCCAGUACUAAAAUUGUAUUGUCUUUCAGACAAUAUAAUUUUUAUUUACAACAGAGGAUUGAGCAUCA
B6: chr6:117694021:117694122:+|CDS|ENSG00000153989|msi1|FALSE|unique (ssRNA)
RNA: GGGAGUUCUACAGUCCGACGAUCGCUGUCUCCGGAAGAUGGAAAAGCAGAUAUUGUAAGAGCUGCUCAGGACUUUUGCCAGUUAGUAGCCCAGAAGCAAAAGAGACCCACAGAUUUGGAUGUAGAUACGUUAGCCAGUUUACUCAACAGAGGAUUGAGCAUCA

The list shows a part of the results.

The assay concerns the target MSI1 full-length (mouse, UniProt Q61474 1-362). Put plainly: nsRBNS (natural sequence RNA bind-n-seq); RBNS binding buffer (assumed for nsRBNS): 25 mM Tris pH 7.5, 150 mM KCl, 3 mM MgCl2, 0.01% Triton X-100, 500 ug/ml BSA, 20 U/ml SUPERase-In, 4 C; UNK is unkempt and MSI1 is Musashi-1; names of the RNAs are library labels; protein concentration not given here; high values mean tight binding.
Sequence of UniProt Q61474 (Q61474 whole entry): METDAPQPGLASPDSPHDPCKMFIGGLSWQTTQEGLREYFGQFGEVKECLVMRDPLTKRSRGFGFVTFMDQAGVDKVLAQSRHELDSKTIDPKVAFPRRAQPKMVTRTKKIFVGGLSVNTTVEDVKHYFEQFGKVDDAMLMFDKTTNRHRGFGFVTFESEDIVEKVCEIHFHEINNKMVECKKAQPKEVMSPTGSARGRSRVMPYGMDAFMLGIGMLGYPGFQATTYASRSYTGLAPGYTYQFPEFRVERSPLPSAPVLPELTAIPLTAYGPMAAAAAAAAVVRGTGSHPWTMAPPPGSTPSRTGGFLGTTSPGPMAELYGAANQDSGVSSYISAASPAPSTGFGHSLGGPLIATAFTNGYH
In the case of B1, the binding signal is 0.741 enrichment R.
Next, B2: 0.417 enrichment R.
B3 yielded a binding signal of 0.41 enrichment R.
B4 came in with a binding signal of 0.418 enrichment R.
B5 yielded a binding signal of 0.474 enrichment R.
For B6, the binding signal was 17.5 enrichment R.

The values are drawn from PMC12136788.
